Measurements: publication PMC4336329 (PLoS ONE, 2015)
Hit rate of the full screen: of about 310,000 compounds, about 2,200 (0.71%) showed an effect of 50% or more. The effect is printed as a negative number. The list shows a part of the results.

biological target: human ether-à-go-go-related gene (hERG) potassium channel (human, UniProt Q12809); assay: primary screen, population patch clamp on CHO cells stably expressing hERG
Sequence (Q12809 whole entry, looked up): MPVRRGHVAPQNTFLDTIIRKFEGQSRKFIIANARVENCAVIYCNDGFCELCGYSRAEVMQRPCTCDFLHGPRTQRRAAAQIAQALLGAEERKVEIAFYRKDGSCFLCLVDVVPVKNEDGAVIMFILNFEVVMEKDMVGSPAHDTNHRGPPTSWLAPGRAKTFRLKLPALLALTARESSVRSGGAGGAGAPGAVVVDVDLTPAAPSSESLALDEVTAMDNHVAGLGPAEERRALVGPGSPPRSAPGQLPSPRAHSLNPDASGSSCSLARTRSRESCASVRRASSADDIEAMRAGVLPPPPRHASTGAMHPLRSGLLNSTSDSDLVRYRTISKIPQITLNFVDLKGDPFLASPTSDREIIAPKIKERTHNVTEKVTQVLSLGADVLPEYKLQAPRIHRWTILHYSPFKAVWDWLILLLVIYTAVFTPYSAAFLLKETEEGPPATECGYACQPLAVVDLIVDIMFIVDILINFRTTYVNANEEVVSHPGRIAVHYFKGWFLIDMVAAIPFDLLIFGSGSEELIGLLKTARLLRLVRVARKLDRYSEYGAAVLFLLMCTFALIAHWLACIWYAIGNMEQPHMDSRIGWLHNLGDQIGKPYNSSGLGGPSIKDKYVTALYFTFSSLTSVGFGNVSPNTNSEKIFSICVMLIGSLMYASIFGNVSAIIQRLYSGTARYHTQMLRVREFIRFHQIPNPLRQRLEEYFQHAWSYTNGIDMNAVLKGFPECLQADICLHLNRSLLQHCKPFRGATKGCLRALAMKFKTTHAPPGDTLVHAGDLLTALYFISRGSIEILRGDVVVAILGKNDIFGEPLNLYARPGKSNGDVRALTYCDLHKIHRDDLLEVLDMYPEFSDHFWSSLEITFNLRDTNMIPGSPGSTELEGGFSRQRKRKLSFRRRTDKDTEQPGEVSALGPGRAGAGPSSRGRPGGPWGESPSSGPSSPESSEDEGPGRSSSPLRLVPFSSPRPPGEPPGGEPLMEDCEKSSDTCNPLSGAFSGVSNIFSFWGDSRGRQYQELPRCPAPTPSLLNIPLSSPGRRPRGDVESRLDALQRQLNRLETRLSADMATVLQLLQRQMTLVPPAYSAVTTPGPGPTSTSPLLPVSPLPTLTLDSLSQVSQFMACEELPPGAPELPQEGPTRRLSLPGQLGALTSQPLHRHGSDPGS

| Structure (SMILES) | hERG current change (%, negative = inhibition) at 1uM [%] |
| --- | --- |
| COCCN(CCOC)c1nc(-c2ccccc2)nc2ccccc12 | -15.8 |
| COc1cc2c(cc1OC)CN(C(=O)CCc1c[nH]c3ccccc13)[C@H](C(=O)O)C2 | 15.2 |
| COC(=O)CSc1nnc(CNc2ccc(Cl)cc2)n1-c1ccccc1 | -6.46 |
| CN(C)CCNC(=O)C(=O)Nc1ccc2c(c1)N(S(=O)(=O)c1cccs1)CCC2 | 19 |
| Cc1ccc(NC(=O)O/N=C/c2ccc(Br)cc2)cc1 | 7.78 |
| CC1CN(c2nc3c(c(=O)n(Cc4ccc(Cl)c(Cl)c4)c(=O)n3C)n2C)CC(C)O1 (stereo not shown) | -2.18 |
| CC(C)C(OC(=O)c1cccs1)C(=O)NCc1ccc2c(c1)OCO2 (stereo not shown) | 31 |
| Cn1c(Cc2cccs2)nnc1SCC(=O)Nc1ccc(C(N)=O)cc1 | 11.1 |
| CCCCCC/C(=N/O)c1ccccn1 | 10.3 |
| O=C(Nc1nccs1)c1ccc(F)c(S(=O)(=O)N2CCOCC2)c1 | -1.16 |
| O=C(NCNC(=O)NC1C(=O)NC(=O)N1CO)NC1C(=O)NC(=O)N1CO (stereo not shown) | 4.63 |
| Brc1ccc(N=C/C=C/C=C/Nc2ccc(Br)cc2)cc1.Cl | 1.96 |
| CCN(CC)C(=O)C1CCCN(c2ccc([N+](=O)[O-])cc2/C=N/NC(=O)c2ccccc2)C1 (stereo not shown) | 7.25 |
| COc1ccc(C(=O)Nc2nc3ccccc3c(=O)[nH]2)cc1 | 11.4 |
| CCOc1c(Nc2ccccc2O)c(=O)c1=O | 14.5 |
| COc1ccc(NS(=O)(=O)c2ccc3oc4ccccc4c3c2)cn1 | 23.4 |
| Cc1[nH]c2ccccc2c1/C=N/Nc1nc(Nc2ccccc2)nc(N2CCOCC2)n1 | -3.33 |
| COc1ccccc1OCC(=O)NCC1CCCN(C(=O)c2ccccc2SC)C1 (stereo not shown) | 5.06 |
| CC12CCC3C(CC=C4CC(O)CCC43C)C1C/C(=C\c1cccc(F)c1)C2=O (stereo not shown) | 12.5 |
| O=C(NCCNC1CCCCC1)c1ccco1 | 16.9 |
| CCOc1ccc(N(CC(=O)N2CCOCC2)S(=O)(=O)c2ccc(Cl)cc2)cc1 | 3.85 |
| COc1ccc(N2CCc3c(C)nc4c(OC)cccc4c32)cc1 | -28.3 |
| CCOC(=O)c1ccc(COC(=O)CNC(=O)CNC(=O)c2ccc(OC)cc2)o1 | 5.76 |

| Structure (SMILES) | hERG current change (%, negative = inhibition) at 1uM [%] |
| --- | --- |
| CCCCN(C(=O)CSc1c(C)c(C)cc(C)c1C)c1c(N)n(CCC)c(=O)[nH]c1=O | 23.3 |
| COc1ccc(N=Cc2c(C)[nH][nH]c2=O)cc1 | 6.4 |
| CC1=C(C(=O)Nc2ccccc2F)C(c2cccs2)C2=C(CCCC2=O)N1 (stereo not shown) | 7.95 |
| COc1ccc(S(=O)(=O)N(C)C)cc1NC(=O)c1ccc2c(c1)OCCO2 | 2.01 |
| CCOC(=O)c1sc2nc(C)n(N)c(=O)c2c1C | 17.5 |
| CC(Sc1nnc2c(n1)[nH]c1ccccc12)C(=O)NC1CCCCC1 (stereo not shown) | 3.42 |
| CN(C(=O)c1ccccc1NC(=O)C(F)(F)F)c1ccccc1 | 6.4 |
| COC(=O)c1ccccc1C(=O)N1CCOCCOCCOCC1 | 12.5 |
| CCN(CC(=O)NCc1ccc(Cl)cc1)C(=O)/C=C/c1ccccc1 | -1.79 |
| O=C1COc2ccc(C(=O)COC(=O)c3ccccn3)cc2N1 | 3.27 |
| Cc1ccc2cc3cc(C(=O)NCCCN4CCCC4=O)oc3nc2c1 | 11.6 |
| CCOC(=O)c1c[nH]c2c(C(F)(F)F)cccc2c1=O | 12.3 |
| Cc1ccc(NC(=O)c2ccc(S(=O)(=O)N3CCCC3)cc2)nc1 | 19.7 |
| Cc1noc(NS(=O)(=O)c2ccc(NC(=O)c3oc4ccc(Cl)cc4c3C)cc2)c1C | -3.06 |
| COc1cc(C(=O)N2CCc3ccccc32)ccc1OCc1c(C)noc1C | 2.24 |
| CC1Cc2ccccc2N1C(=O)CNCCCN(C)C.O=C(O)C(=O)O (stereo not shown) | 3.76 |
| CCOC(=O)/C(=N/Nc1ccccc1)c1csc(Nc2ccccc2)n1 | 3.49 |
| Cc1c(O)nc(SC2CC(=O)N(c3ccccc3)C2=O)[nH]c1=O (stereo not shown) | 8.4 |
| Cc1cc(Cl)ccc1Oc1ncnc2onc(C)c12 | 6.75 |
| COc1ccc(/C=C(/NC(=O)c2ccco2)C(=O)Nc2ccc(C(=O)O)cc2)cc1 | 12.1 |
| O=C(Cn1cc2c(n1)CCCCC2)NC1CCN(Cc2ccccc2)CC1 | -49.5 |
| O=C(O)Cn1cnc2ccccc2c1=O | 9.17 |
| O=C(c1ccccc1)c1cnc2ccc(Cl)cc2c1N1CCOCC1 | 7.3 |
